Measurements taken from PubChem BioAssay (NCATS).
This list was built around the results that the source calls inconclusive (neither active nor inactive); the mix of calls is not that of the screen. A potency beside an inconclusive call is a rough fit, not a confirmed value. Active and inactive are the calls of the source. The call rests on the fitted dose curve; in most records, active means well fitted curve in the direction sought with a large enough effect; inconclusive means small, poorly fitted or top-dose-only effect, or another doubt; inactive means no such curve, though single readings can be large; an effect the other way counts as inactive or inconclusive.

Assays:
[1] = target: Cellular tumor antigen p53 (Homo sapiens) (UniProt P04637); test: Primary qHTS for small molecule compounds that upregulate eGFP-tagged delta133p53alpha (in N-terminal) cells. (AID 2060322); settings: NCI-H358 eGFP-delta133p53alpha fluorescence, 24 h; activation: hits give high values;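 further: cells pre-induced with doxycycline then dosed without doxycycline; nearly all actives have a fitted effect of over 75% in size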;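 on activation: 0% = DMSO vehicle and 100% = reference activator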
Procedure, shortened: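 NCI-H358 cells pre-induced 24 h with 10 ng/ml doxycycline for eGFP-delta133p53alpha, plated dox-free and exposed 24 h at 37C to titrated compounds. Fixed, Hoechst-stained; gated GFP peak intensity by laser scanning cytometry, normalized to DMSO (0%) and 57.5 uM 5-azacytidine (100%).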

[2] = BET inhibitor-based combinations targeting novel dependencies in MECOM-rearranged (r) AML: OCI-AML3 cell line (AID 2202232); settings: CellTiter-Glo luminescence, 48 h; Potency: OCI-AML3 viability; viability (% of control): at 46 µM (top of the series); further: nearly all actives have a fitted effect of over 35% in size;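 on viability (% of control): plate controls were DMSO vehicle wells for no effect and wells without cells for full effect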
Procedure, shortened: (§1)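 Readout: CellTiter-Glo luminescence. Exposure: 48 h, 11 concentrations, 500 cells/well. Metric: AUC and within-line Z-AUC after DMSO/empty-well normalization.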

[3] = BET inhibitor-based combinations targeting novel dependencies in MECOM-rearranged (r) AML: HNT-34 cell line (AID 2202234); further: nearly all actives have a fitted effect of over 35% in size
Procedure, shortened: (§2)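 Seeding density was 500 cells/well, and drug exposure lasted 48 hr under standard culture conditions. Read-out used CellTiter-Glo reagent with a 15 min room-temperature incubation before luminescence measurement; AUC and Z-AUC summarize the normalized responses.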

[4] = BET inhibitor-based combinations targeting novel dependencies in MECOM-rearranged (r) AML: AML-194 cell line (AID 2202237; further: nearly all actives have a fitted effect of over 40% in size;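 on viability (% of control): plate controls were vehicle wells for no effect and wells without cells for full effect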)
Procedure, shortened: as §1

[5] = BET inhibitor-based combinations targeting novel dependencies in MECOM-rearranged (r) AML: UCSD-AML1 cell line (AID 2202235); settings: UCSD-AML1 AML cells viability, CellTiter-Glo, 48 h; viability (% of control): at 46 µM (top of the series); further: nearly all actives have a fitted effect of over 40% in size
Procedure, shortened: as §2

[6] = BET inhibitor-based combinations targeting novel dependencies in MECOM-rearranged (r) AML: AML-191 cell line (AID 2202236; further: nearly all actives have a fitted effect of over 35% in size;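 on viability (% of control): plate controls were vehicle wells for no effect and wells without cells for full effect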)
Procedure, shortened: as §1
Potency means the concentration at half of the fitted maximal effect; tags describe the fitted curve by direction and shape.

Sequence of UniProt P04637 (P04637 whole entry, looked up): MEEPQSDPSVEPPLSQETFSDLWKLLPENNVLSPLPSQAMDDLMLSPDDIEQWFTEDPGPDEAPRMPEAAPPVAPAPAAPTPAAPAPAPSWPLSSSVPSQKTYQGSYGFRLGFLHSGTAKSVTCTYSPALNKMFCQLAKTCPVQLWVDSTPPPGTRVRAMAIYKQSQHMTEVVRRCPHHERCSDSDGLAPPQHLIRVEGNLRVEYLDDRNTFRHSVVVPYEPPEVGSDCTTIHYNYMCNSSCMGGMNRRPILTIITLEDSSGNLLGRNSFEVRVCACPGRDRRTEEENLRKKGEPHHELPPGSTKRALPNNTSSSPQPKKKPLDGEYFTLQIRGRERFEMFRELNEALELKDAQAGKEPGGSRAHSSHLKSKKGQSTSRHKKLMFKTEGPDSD

Row | SMILES | Potency [1] | Potency [2] | Potency [3] | Potency [4] | activation [1] | Potency [5] | Potency [6]
1 | COc1cc2c(Nc3ccc(NC(=O)c4ccccc4)cc3)ncnc2cc1OCCCN1CCOCC1 | inconclusive: 0.426 µM [activator, full curve] | active: 18.6 µM | active: 1.32 µM | active: 23.5 µM |  |  | 
2 | COc1cc2nccc(Oc3ccc(NC(=O)Nc4ccc(F)cc4F)c(F)c3)c2cc1OC |  | inconclusive: 14.8 µM [inhibitor, partial curve, poor fit] |  | inconclusive: 2.63 µM [inhibitor, full curve] | inactive: 5.39% | active: 2.09 µM | inconclusive: 1.32 µM [inhibitor, full curve]
3 | FC(F)(F)c1ccc(CNc2ccc(Cc3c[nH]c4ncc(Cl)cc34)cn2)cn1 | inconclusive: 0.305 µM [activator, full curve, poor fit] | inconclusive: 0.0105 µM [inhibitor, full curve, poor fit] | inconclusive: 20.9 µM [inhibitor, partial curve, poor fit] |  |  |  | inconclusive: 20.9 µM [inhibitor, single point]
4 | COc1cc2c(cc1OC)CN(CCc1ccc(NC(=O)c3cccc4c(=O)c5cccc(OC)c5[nH]c34)cc1)CC2 | inconclusive: 23.9 µM [activator, single point] | inactive |  | inactive |  |  | inactive
5 | N#Cc1ccnc(Nc2cc(C3CCN(C4COC4)CC3)cc(N3CCC(F)(F)C3)n2)c1 | active: 27.2 µM | active: 8.33 µM |  | active: 4.17 µM |  |  | 
6 | C[C@@H](Nc1ncnc2[nH]c(-c3ccc(O)cc3)cc12)c1ccccc1 | inconclusive: 2.13 µM [activator, full curve, poor fit] | inconclusive: 10.5 µM [inhibitor, single point] |  | inconclusive: 18.6 µM [inhibitor, partial curve] |  | inconclusive: 0.934 µM [inhibitor, full curve, poor fit] | 
